In patent publication US4723008A, “Isoprenylamine derivatives” (priority 1981, dated 1988):

System: influenza virus (PR-8)
Conditions: 50 mg/kg intraperitoneally 24 hours before infection and 5 times every other day from second day; survival 21 days or more

Row | SMILES | Prevention from influenza infection (Survival rate %) [%]
1 | CC(C)=CCCC(C)=CCCC(C)=CCCC(C)=CCCC(C)=CCCC(C)=CCCC(C)=CCCC(C)=CCCC(C)=CCN(CCc1ccccc1)Cc1ccccc1 | 40
2 | CC(C)=CCCC(C)=CCCC(C)=CCCC(C)=CCCC(C)=CCCC(C)=CCCC(C)=CCCC(C)=CCCC(C)=CCCC(C)=CCN(Cc1ccccc1)CC(O)CN(CCO)CCO (centres unmarked) [drawing 51] | 40
3 | CC(C)=CCCC(C)=CCCC(C)=CCCC(C)=CCCC(C)=CCCC(C)=CCCC(C)=CCCC(C)=CCCC(C)=CCCC(C)=CCN(Cc1ccccc1)CC(O)CNC(C)(C)C (centres unmarked) [drawing 52] | 20
4 | CC(C)=CCCC(C)=CCCC(C)=CCCC(C)=CCCC(C)=CCCC(C)=CCCC(C)=CCCC(C)=CCCC(C)=CCN(CCc1ccccc1)CC(O)CNC(C)(C)C (centres unmarked) [drawing 53] | 70
5 | CC(C)=CCCC(C)=CCCC(C)=CCCC(C)=CCCC(C)=CCCC(C)=CCCC(C)=CCCC(C)=CCCC(C)=CCN(CCc1ccccc1)CC(O)CN1CCN(CCO)CC1 (centres unmarked) [drawing 54] | 60
